Assay results taken from PubChem BioAssay AID651820 (National Center for Advancing Translational Sciences (NCATS), 2012).
About 12,000 (3.5%) of roughly 340,000 compounds were called active. Inconclusive means that the source gave no clear call. Such entries were picked first, then a sample of the others. The call rests on the fitted dose curve; in most records, active means well fitted inhibition curve with a large enough effect; inconclusive means small, poorly fitted or top-dose-only effect, or another doubt; inactive means no such curve, though single readings can be large or run the other way. Potencies of inconclusive entries are left out as doubtful fits.

Assay: qHTS Assay for Inhibitors of Hepatitis C Virus (HCV)
Conditions: Huh7.5.1 HCVcc-Cre (HCVcc is cell-culture hepatitis C virus) infection, luciferase reporter, 44 h; activity change, negative = inhibition: at 41.8 µM (top of the series) unless noted
How it was run: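 1,000 cells/well; 4 h culture; + compound; + HCVcc-Cre (~0.5 moi); 44 h; luciferase substrate, RT 15 min; read 15 sec.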
On the % scale 0 is the no-effect control and ±100 the full control effect; potency means the concentration at half of the fitted maximal effect; tags describe the fitted curve by direction and shape.

| SMILES | Potency | activity change, negative = inhibition |
| --- | --- | --- |
| CCC1CCC(N2CCN(c3ccc([N+](=O)[O-])cc3)CC2)CC1 (centres undefined) | inconclusive [inhibitor, single point] | – |
| CCOC(=O)C(=CNc1ccc2c(c1)CCN2C(C)=O)C(=O)OCC | inconclusive [inhibitor, partial curve] | – |
| Cc1cc(C)nc(N/N=C/c2ccc(N3CCOCC3)cc2)n1 | inactive | – |
| CCC(C(=O)NC1CCCC1)N(C(=O)Cn1nnc(-c2cccs2)n1)c1cnc2ccccc2c1 (centres undefined) | inactive | – |
| N#Cc1ccc(COC(=O)c2cnc(Cl)c(Cl)c2)cc1 | inconclusive [inhibitor, single point] | – |
| O=C(NCc1ccco1)c1cc(S(=O)(=O)N2CCCC2)ccc1Cl | inactive | – |
| COC(=O)C1=C(C)N(Cc2ccccc2)C(=NCc2cc(OC)c(OC)c(OC)c2)N[C@H]1CCc1ccccc1 | inconclusive [inhibitor, single point] | – |
| O=C1OCc2ccc(NC(=O)C3CCCCC3)cc21 | inconclusive [inhibitor, partial curve] | – |
| Cc1ccccc1Nc1c(-c2ccc(N3CCOCC3)cc2)nc2cnccn12 | inactive | – |
| COc1ccc(C(C[N+](=O)[O-])c2c(C)cc3ccccn23)cc1 (centres undefined) | inconclusive [inhibitor, partial curve, poor fit] | – |
| O=C1CNC(=S)N1Cc1ccccc1Cl | inactive | – |
| C[C@H]1COC(=O)[C@H](Cc2ccc(F)cc2)C/C=C\C[C@@H](CC(=O)NCCO)C(=O)N1 | inactive | – |
| c1ccc(-c2nnc(N3CCCC3)nc2-c2ccccc2)cc1 | inconclusive [inhibitor, single point] | – |
| CCOC(=O)[C@@H]1[C@H]2COc3cc(OC)ccc3[C@@H]2N2C(=O)N(c3ccc(C(F)(F)F)cc3)C(=O)[C@@]12C | inactive | – |
| CCOc1ccc(N2C(=O)NC(=O)/C(=C/c3cnc(SC)nc3)C2=O)cc1 | inactive | – |
| COc1ccc(-c2cc3ncccc3cn2)cc1 | inactive | – |
| O=C(c1ccccc1)c1ccc(N2CCOCC2)cc1 | inactive | – |
| Nc1ccccc1SCC(=O)Nc1nccs1 | inactive | – |
| CCCS(=O)(=O)c1cscc1NC(=O)c1c(-c2c(F)cccc2Cl)noc1C | inactive | – |
| COc1ccc(OC)c(S(=O)(=O)N2CCC(C(=O)N3CCc4ccccc4C3)CC2)c1 | inconclusive [inhibitor, single point] | – |
| Cc1nc(NC(C)c2ccccc2)c2oc3ccccc3c2n1 (centres undefined) | active: 6.31 µM | – |
| O=c1[nH]c(=O)n(CCC2=CCCCC2)c(O)c1C=Nc1cccc(F)c1 | inactive | – |
| Cc1cc(-c2ccccc2)nc(Nc2nc3c(C)cccc3c(=O)[nH]2)n1 | inconclusive [inhibitor, single point] | – |
| COc1ccc(N(C)C(=O)c2ccc3snnc3c2)cc1 | inactive | – |
| Cc1cc(C)cc(NC(=O)CSc2nnc(CNC(=O)c3ccco3)n2C)c1 | inactive | – |

| SMILES | Potency | activity change, negative = inhibition |
| --- | --- | --- |
| COc1ccc(C(=O)NC(=S)Nc2ccccc2N2CCCCC2)cc1[N+](=O)[O-] | active: 12.6 µM | – |
| COc1cc(Cn2c(-c3nonc3N)nc3ccccc32)ccc1C | inconclusive [inhibitor, single point] | – |
| CN(C)CCCNC(=O)c1ccc(Oc2ccccc2)cc1 | inconclusive [inhibitor, single point] | – |
| CCOc1cc(S(=O)(=O)N2CCN=C2Cc2ccccc2)ccc1F | inconclusive [inhibitor, single point] | – |
| Cc1ccccc1CSc1nnc2ccc(-c3ccncc3)nn12 | inactive | – |
| O=C(NCC1CCCN1S(=O)(=O)c1cccs1)c1cccc([N+](=O)[O-])c1 (centres undefined) | – | inactive: 7.32% [at 8.37 µM] |
| COc1ccc(CNc2ncnc3c2[nH]c2cc(OC)c(OC)cc23)cc1 | inconclusive [inhibitor, partial curve] | – |
| COc1ccc(C(=O)CC(SCC(NC(C)=O)C(=O)O)c2ccc(Cl)cc2)cc1OC (centres undefined) | inconclusive [inhibitor, partial curve] | – |
| Cc1ccc(C(C)C)c(OCc2nc(-c3nonc3N)no2)c1 | inactive | – |
| CCNc1nc(SCC(=O)Nc2ccc(Cl)c(Cl)c2)nc(N2CCOCC2)n1 | inconclusive [inhibitor, partial curve] | – |
| CC(CN1CCN(C)CC1)OC(=O)c1ccc(Cl)cc1 (centres undefined) | inconclusive [inhibitor, single point] | – |
| O=C(Nc1ccc(F)cc1)c1cc(-c2ccncc2)nc2c(Cl)cccc12 | inconclusive [inhibitor, full curve, poor fit] | – |
| Cc1nc2ccc(NC(=O)Cc3ccc(Br)cc3)cc2s1 | inconclusive [inhibitor, single point] | – |
| CCOC(=O)C1=CN(Cc2cccc(F)c2)S(=O)(=O)N(C)C1c1ccc2ccccc2c1 (centres undefined) | active: 11.2 µM | – |
| Cc1ccc(NC(=O)CSCC(=O)Nc2cccc(S(=O)(=O)N3CCCCCC3)c2)cc1 | active: 12.6 µM | – |
| O=C(Nc1ccc2nc3n(c(=O)c2c1)CCCC3)c1cncc(Br)c1 | inconclusive [inhibitor, single point] | – |
| OC1C=CSc2nc3ccccc3n21 (centres undefined) | inconclusive [inhibitor, single point] | – |
| C/C(N)=C(/C#N)C(=O)COC(=O)Cc1coc2cc(C)ccc12 | inactive | – |
| Cc1nnc(SCC(=O)Nc2nc(C(C)(C)C)cs2)s1 | inconclusive [inhibitor, partial curve] | – |
| COc1ccc(NC(=O)Cn2nc(C(F)(F)F)c3c2CCCC3)cc1OC | inconclusive [inhibitor, partial curve] | – |
| CN(C)S(=O)(=O)N(CC(=O)Nc1ccccc1)c1ccccc1 | inactive | – |
| Cn1c(CN2CCCC2)nc2cc(NC(=O)c3ccc(Cl)cc3)ccc21 | inconclusive [inhibitor, single point] | – |
| COC(=O)[C@]1(C)N[C@H](CN(C)C(=O)Nc2ccc(Cl)cc2)[C@@H]2C(=O)N(Cc3ccccc3)C(=O)[C@@H]21 | inactive | – |
| O=C(Nc1ccc(S(=O)(=O)NCc2ccco2)cc1)C1CCCCC1 | inconclusive [inhibitor, single point] | – |
